In a collection of fitness landscapes (doi:10.1016/j.celrep.2020.107928):
Whole data set: some 81,000 sequences, median “one-hybrid fitness for binding parS DNA” near -0.17, cut for the highest 2% near 0.51. Some of the results follow.

B1: Caulobacter ParB omega fusion; a variant is named by its letters at X, in order, B8GW30 (parent)
chain: MESVVVGEPGMSEGRRGLGRGLSALLGEVDAAPAQAPGEQLGGSREAPIEILQRNPDQPRRTFREEDLEDLSNSIREKGVLQPILVRPSPDTAGEYQIVAGERAWRAAQRAGLKTVPIMVRELDDLAVLEIGIIENVQRADLNVLEEALSYKVLMEKFERTQENIAQTIGKSXSHVANXMRLLXLPDEVQSYLVSGELTAXHARAIAAAADPVALAKQIIEGGLSVRETEALARKAPNLSAGKSKGGRPPRVKDTDTQALESDLSSVLGLDVSIDHRGSTGTLTITYATLEQLDDLCNRLTRGI

Variants of: B1
Assay: one-hybrid fitness for binding parS DNA (scaled: cognate 1, non-cognate 0); higher = stronger binding
Conditions: with parS DNA site
Procedure, shortened: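 Pre- and post-selection plasmids were Illumina-sequenced, three replicate libraries were pooled, and any variant with under 10 reads was removed. The libraries were Caulobacter ParB with four specificity codons randomised, selected in E. coli USO through a HIS3 reporter whose site is 19 bp from the promoter. Cells grew 48 hours at 37°C on M9 without histidine, with 0.1 mM IPTG and 5 mM 3-AT. Fitness is the log change in variant-to-wild-type read ratio, rescaled against cognate and non-cognate.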

Variant | one-hybrid fitness for binding parS DNA
YIPS | ≤ 0.2
STMN | ≤ 0.2
TPSW | ≤ 0.2
RSGE | ≤ 0.2
TLLD | ≤ 0.2
RVCH | ≤ 0.2
RCRC | 0.863
PTLQ | ≤ 0.2
AMSG | ≤ 0.2
HKSN | ≤ 0.2
NMWG | ≤ 0.2
LRET | ≤ 0.2
SVRD | ≤ 0.2
VTAQ | ≤ 0.2
SQPH | ≤ 0.2
RRCC | 0.619
RGRH | ≤ 0.2
ILFS | ≤ 0.2
HVER | ≤ 0.2
HKLV | ≤ 0.2
ADKM | ≤ 0.2
LRMS | ≤ 0.2
PAMY | ≤ 0.2
FPMR | ≤ 0.2

Variant | one-hybrid fitness for binding parS DNA
DGMC | ≤ 0.2
CWLV | ≤ 0.2
PRHY | ≤ 0.2
QDSM | ≤ 0.2
AQQG | ≤ 0.2
RNWL | ≤ 0.2
ECNM | ≤ 0.2
LVRD | ≤ 0.2
SEQS | ≤ 0.2
NTDV | ≤ 0.2
YKRS | ≤ 0.2
TIVS | ≤ 0.2
EVVS | ≤ 0.2
EDYR | ≤ 0.2
SLAG | ≤ 0.2
WGAS | ≤ 0.2
GVHK | ≤ 0.2
QSAL | ≤ 0.2
PARH | ≤ 0.2
QDLM | ≤ 0.2
PNQT | ≤ 0.2
NLTM | ≤ 0.2
RRVL | ≤ 0.2
SERT | ≤ 0.2

Variant | one-hybrid fitness for binding parS DNA
PCLI | ≤ 0.2
AVPC | ≤ 0.2
KWLI | ≤ 0.2
SNRD | ≤ 0.2
GQWI | ≤ 0.2
TKTM | ≤ 0.2
LADT | ≤ 0.2
RHIA | 0.316
SLLC | ≤ 0.2
FNGR | ≤ 0.2
WNTC | ≤ 0.2
AALR | ≤ 0.2
NHWY | ≤ 0.2
GCGT | ≤ 0.2
FDRD | 0.311
ALMC | ≤ 0.2
AGQG | ≤ 0.2
LVVA | ≤ 0.2
VAHA | ≤ 0.2
CPGG | ≤ 0.2
FLQR | ≤ 0.2
TVIC | ≤ 0.2
NYYR | ≤ 0.2
TASC | ≤ 0.2

Variant | one-hybrid fitness for binding parS DNA
GYAR | ≤ 0.2
GQPT | ≤ 0.2
VETC | ≤ 0.2
DAWT | ≤ 0.2
GGVH | ≤ 0.2
PDTY | ≤ 0.2
PRLV | ≤ 0.2
CAPT | ≤ 0.2
PIAS | ≤ 0.2
VAPT | ≤ 0.2
SHWH | ≤ 0.2
RGYV | ≤ 0.2
QCHC | ≤ 0.2
PFSV | ≤ 0.2
TERG | ≤ 0.2
ASVR | ≤ 0.2
RLDH | ≤ 0.2
SSGL | ≤ 0.2
RLDF | 0.229
YFLS | ≤ 0.2
LSPM | ≤ 0.2
VCND | ≤ 0.2
TFMS | ≤ 0.2
SVKA | ≤ 0.2

Variant | one-hybrid fitness for binding parS DNA
FWGY | ≤ 0.2
YMCE | ≤ 0.2
ATPI | ≤ 0.2
ITKN | ≤ 0.2
PAVQ | ≤ 0.2
FAAF | ≤ 0.2
IRGI | ≤ 0.2
SRWT | ≤ 0.2
WRVF | ≤ 0.2
SRHW | ≤ 0.2
NAEF | ≤ 0.2
HIMG | ≤ 0.2
QNKD | ≤ 0.2
PEGP | ≤ 0.2
PLYM | ≤ 0.2
TKKS | ≤ 0.2
ICKR | ≤ 0.2
CGDR | ≤ 0.2
FPKC | ≤ 0.2
MIGS | ≤ 0.2
SKLI | ≤ 0.2
SQYC | ≤ 0.2
PACC | ≤ 0.2
KKSR | ≤ 0.2

Variant | one-hybrid fitness for binding parS DNA
HRMY | ≤ 0.2
LCAD | ≤ 0.2
NFQS | ≤ 0.2
ERTY | ≤ 0.2
QVSS | ≤ 0.2
AILR | ≤ 0.2
MKLE | ≤ 0.2
CHEA | ≤ 0.2
LCPQ | ≤ 0.2
FRTV | ≤ 0.2
CVCC | ≤ 0.2
GVRG | ≤ 0.2
PLCN | ≤ 0.2
VGPG | ≤ 0.2
VQQR | ≤ 0.2
WNNS | ≤ 0.2
LRED | ≤ 0.2
IKIT | ≤ 0.2
WDDG | ≤ 0.2
QATS | ≤ 0.2
DITV | ≤ 0.2
LGQG | ≤ 0.2
GRCA | ≤ 0.2
DFLG | ≤ 0.2

Variant | one-hybrid fitness for binding parS DNA
TGLV | ≤ 0.2
RTAV | ≤ 0.2
ASVE | ≤ 0.2
QRDC | ≤ 0.2
MTLD | ≤ 0.2
YPII | ≤ 0.2
ALAD | ≤ 0.2
HCKF | ≤ 0.2
KCIC | ≤ 0.2
LEKY | ≤ 0.2
KYLF | ≤ 0.2
REDA | ≤ 0.2
NKAN | ≤ 0.2
WDSL | ≤ 0.2
VVIR | ≤ 0.2
LRRH | ≤ 0.2
GPYL | ≤ 0.2
TRPV | ≤ 0.2
DGIV | ≤ 0.2
QWMC | ≤ 0.2
MYMC | ≤ 0.2
EYNR | ≤ 0.2
DWCS | ≤ 0.2
GMQS | ≤ 0.2

Variant | one-hybrid fitness for binding parS DNA
WSGR | ≤ 0.2
FEYC | ≤ 0.2
YPSL | ≤ 0.2
CLSI | ≤ 0.2
HQPL | ≤ 0.2
CSAS | ≤ 0.2
AMAV | ≤ 0.2
NQAD | ≤ 0.2
DFKD | ≤ 0.2
SRAT | ≤ 0.2
THCT | ≤ 0.2
PLVM | ≤ 0.2
NDKA | ≤ 0.2
YKQM | ≤ 0.2
SHTM | ≤ 0.2
TDHK | ≤ 0.2
RWYE | ≤ 0.2
TNMY | ≤ 0.2
EFVR | ≤ 0.2
ACWR | ≤ 0.2
RVED | ≤ 0.2
NYTV | ≤ 0.2
AVDC | ≤ 0.2
PACF | ≤ 0.2

Variant | one-hybrid fitness for binding parS DNA
QNPC | ≤ 0.2
IADC | ≤ 0.2
TDRG | ≤ 0.2
VYRF | ≤ 0.2
KRDR | ≤ 0.2
RYQL | ≤ 0.2
AQAT | ≤ 0.2
VVLL | ≤ 0.2
HADW | ≤ 0.2
AARL | ≤ 0.2
PLCC | ≤ 0.2
MRGT | ≤ 0.2
EPIM | ≤ 0.2
CLKR | ≤ 0.2
KTGF | ≤ 0.2
LNSS | ≤ 0.2
LNGF | ≤ 0.2
QKPD | ≤ 0.2
AQVL | ≤ 0.2
EWMG | ≤ 0.2
PDNK | ≤ 0.2
PCTD | ≤ 0.2
IFNV | ≤ 0.2
THFN | ≤ 0.2

Variant | one-hybrid fitness for binding parS DNA
GKKG | ≤ 0.2
PFRE | ≤ 0.2
PSYP | ≤ 0.2
LSNF | ≤ 0.2
SYEK | ≤ 0.2
GDRN | ≤ 0.2
YAER | ≤ 0.2
IIMG | ≤ 0.2
YYWL | ≤ 0.2
CRYF | ≤ 0.2
QPDG | ≤ 0.2
KCEV | ≤ 0.2
FSMT | ≤ 0.2
SSSY | ≤ 0.2
PNVR | ≤ 0.2
EFLS | ≤ 0.2
EGVS | ≤ 0.2
VMGW | ≤ 0.2
SNLN | ≤ 0.2
MSIC | ≤ 0.2
KQHW | ≤ 0.2
STGN | ≤ 0.2
CCSV | ≤ 0.2
KKAS | ≤ 0.2

Variant | one-hybrid fitness for binding parS DNA
RPMF | ≤ 0.2
IFLH | ≤ 0.2
QLKC | ≤ 0.2
CAHI | ≤ 0.2
FQHR | ≤ 0.2
SWML | ≤ 0.2
QQAA | ≤ 0.2
GSIK | ≤ 0.2
YKTQ | ≤ 0.2
QQSS | ≤ 0.2
HTQR | ≤ 0.2
QIDN | ≤ 0.2
DCRV | ≤ 0.2
TKEL | ≤ 0.2
YEAM | ≤ 0.2
PELA | ≤ 0.2
LLCY | ≤ 0.2
ALNC | ≤ 0.2
AHIG | ≤ 0.2
NNPS | ≤ 0.2
PMKG | ≤ 0.2
HDLQ | ≤ 0.2
RVSL | ≤ 0.2
AQSY | ≤ 0.2

Variant | one-hybrid fitness for binding parS DNA
PQPN | ≤ 0.2
INAR | ≤ 0.2
YPTV | ≤ 0.2
RRNG | 0.704
PEKG | ≤ 0.2
SAAG | ≤ 0.2
IMKC | ≤ 0.2
TYRY | ≤ 0.2
RAYN | 0.445
VVSE | ≤ 0.2
QVMG | ≤ 0.2
IGPV | ≤ 0.2
RTGD | ≤ 0.2
AVTR | ≤ 0.2
CHIS | ≤ 0.2
CQPT | ≤ 0.2
RWPE | ≤ 0.2
RAPF | ≤ 0.2
SSAR | ≤ 0.2
VGFS | ≤ 0.2
NSDP | ≤ 0.2
CSYW | ≤ 0.2
RHHM | 0.266
PHNG | ≤ 0.2

Variant | one-hybrid fitness for binding parS DNA
LCVR | ≤ 0.2
LDPT | ≤ 0.2
YVGL | ≤ 0.2
TQQL | ≤ 0.2
LWPS | ≤ 0.2
RRHD | ≤ 0.2
NIQI | ≤ 0.2
DDTI | ≤ 0.2
HKDT | ≤ 0.2
LESH | ≤ 0.2
LVCA | ≤ 0.2
HWAD | ≤ 0.2
WNLN | ≤ 0.2
YKNR | ≤ 0.2
EAHR | ≤ 0.2
KRVS | ≤ 0.2
GRKY | ≤ 0.2
GQGG | ≤ 0.2
